Data as given in PubChem BioAssay (NCATS).
Inconclusive results, whose numbers are uncertain, are shown with a selection of clear calls. For some of these results: Potencies of inconclusive entries are left out as doubtful fits. The source made the active and inactive calls. Unless noted, the call rests on the fitted dose curve; in most records, active means well fitted curve in the direction sought with a large enough effect; inconclusive means small, poorly fitted or top-dose-only effect, or another doubt; inactive means no such curve, though single readings can be large; an effect the other way counts as inactive or inconclusive.

Key:
[1] = qHTS Assay for Identification of Small Molecule Antagonists for NFkB Signaling Pathway (AID 895; active means well fitted inhibition curve with a large enough effect in the signal ratio, with a control signal flat, not every such curve was filed as active; inconclusive means small, poorly fitted or top-dose-only effect, or effect the other way, or a change in a side signal; the % refers to the signal ratio; further: on the % scale 0 is the no-effect control and ±100 the full control effect); conditions: NFkB beta-lactamase reporter cells, FRET ratio 460/530, stimulated with 10 pM TNF alpha; activity change, negative = inhibition: at 38.3 µM (top of the series)
Summary of the method: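 NFkB-bla ME-180 cervical carcinoma cells with beta-lactamase reporter under NFkB response element; compounds added, then TNF alpha at 10 pM final (EC50), 5 h at 37 C. LiveBLAzer substrate 2 h, room temperature; emission 460/530 nm at 405 nm excitation.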

[2] = qHTS Assay for Lipid Storage Modulators (AID 1519; calls by dose curve; further: potency means the concentration at half of the fitted maximal effect; on activity change, negative = inhibition: on the % scale 0 is the no-effect control and ±100 the full control effect); conditions: Drosophila S3 cells, BODIPY lipid droplet/cell ratio, laser cytometry, cells loaded with oleic acid; activity change, negative = inhibition: at 57.5 µM (top of the series) unless noted
Summary of the method: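 Cells seeded at 5,000 per well were treated with compounds over a concentration series and loaded with oleic acid (400 uM, as added). Lipid droplet fluorescence (488 nm excitation, 500-530 nm channel) was read by laser-scanning cytometry and normalized to 20 uM Triacsin C.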

[3] = biological target: RecQ-like DNA helicase BLM (Homo sapiens) (UniProt P54132); experiment: qHTS Validation Assay for Inhibitors of Bloom's syndrome helicase (BLM) (AID 2364); further: potency means the concentration at half of the fitted maximal effect;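 on activity change, negative = inhibition: plate controls were DMSO vehicle for no effect and enzyme-free control for full effect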
Summary of the method: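 BLM 50 nM in 25 mM Tris-HCl pH 8.0, 5 mM NaCl, 2 mM MgCl2, 1 mM DTT, 0.01% Tween-20, 2.5 ug/ml poly(dI-dC); 15 min cpd preinc, RT. Start: 200 nM forked DNA + 2 mM ATP (final). TAMRA read, 2 reads 2 h apart.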

[4] = biological target: ATP-dependent 6-phosphofructokinase (Trypanosoma brucei brucei) (UniProt O15648); experiment: qHTS Validation Assay to Find Inhibitors of T. brucei phosphofructokinase (AID 485368); further: potency means the concentration at half of the fitted maximal effect;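 on activity change, negative = inhibition: 0% = full PFK enzyme control and -100% = wells without enzyme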
Summary of the method: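 Enzyme reaction in triethanolamine buffer pH 8.0 with 5 mM MgCl2, 0.01% Tween20 and 0.1% BSA; PFK 1.25 nM, F6P 0.5 mM, ATP 0.1 mM, 45 min RT. ADP quantified by ADP-Glo.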

Furin (Homo sapiens) = Furin (Homo sapiens) (UniProt P09958); experiment: Furin counterscreen qHTS for Zika virus inhibitors (AID 1347149); conditions: furin enzymatic counterscreen, fluorogenic substrate; activity change, negative = inhibition: at 114 µM (top of the series); further: potency means the concentration at half of the fitted maximal effect; nearly all actives have a fitted effect of over 70% in size
Summary of the method: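 Fluorogenic cleavage of BOC-RVRR-AMC (2 microM final, Km ~15 µM) was monitored (ex 340, em 450 nm) at 37C after 15 min RT preincubation of 5 nM furin with compounds in HEPES pH 7.0 buffer with CaCl2 and Triton X-100. Percent inhibition was fitted to a 4-parameter Hill curve.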

[5] = system: Zika virus NS2B-NS3 protease (unlinked); experiment: Optimization of GU AMC qHTS for Zika virus inhibitors: Unlinked NS2B-NS3 protease assay (AID 1347151); conditions: recombinant ZIKV NS2B-NS3 protease, fluorogenic AMC substrate; activity change, negative = inhibition: at 52.5 µM (top of the series) unless noted; further: nearly all actives have a fitted effect of over 80% in size; further: potency means the concentration at half of the fitted maximal effect;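 on activity change, negative = inhibition: 0% = no-inhibitor control and -100% = no-enzyme control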
Summary of the method: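 In this qHTS, compounds acted on 25 nM unlinked Zika NS2B–NS3 in pH 8.0 Tris/Tween buffer. Cleavage of an AMC peptide ran 15 min at room temperature, to about 20% conversion.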

[6] = system: Zika virus NS2B-NS3 protease (linked construct); experiment: Confirmatory screen NINDS AMC qHTS for Zika virus inhibitors (AID 1347152); further: potency means the concentration at half of the fitted maximal effect; nearly all actives have a fitted effect of over 70% in size
Summary of the method: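 Concentration-response confirmation used the NINDS linked protease (NS2B hydrophilic domain joined to NS3 protease domain), 1 nM, with a 15-min compound preincubation. Substrate, Nle-KRR-AMC at 10 microM, was read by UV fluorescence before and after 15 min.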

[7] = system: Zika virus NS2B-NS3 protease; experiment: Primary screen GU AMC qHTS for Zika virus inhibitors (AID 1347154); further: potency means the concentration at half of the fitted maximal effect; nearly all actives have a fitted effect of over 70% in size
Summary of the method: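 Unlinked Zika NS2B hydrophilic domain/NS3 protease domain noncovalent complex (25 nM final) in 10 mM Tris-HCl pH 8.0, 0.01% Tween 20, with AMC peptide substrate. Fluorescence (ex 340, em 450 nm) change over 15 min, room temperature; percent inhibition fitted to 4-parameter Hill equation.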

[8] = qHTS of pediatric cancer cell lines to identify multiple opportunities for drug repurposing: Primary screen for SK-N-MC cells (AID 1347093); further: potency means the concentration at half of the fitted maximal effect
Summary of the method: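 Metabolically active cells were quantified by ATP-dependent luminescence (CellTiter-Glo, 15 min at room temperature) following 48 h treatment. Cells had been plated at 500-1,000 per well and settled for 5 h beforehand.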

[9] = qHTS of pediatric cancer cell lines to identify multiple opportunities for drug repurposing: Primary screen for BT-12 cells (AID 1347101);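 further: plate controls were DMSO for no effect and bortezomib positive control for full effect; nearly all actives have a fitted effect of over 25% in size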
Summary of the method: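 Cells (500-1,000/well) rested 5 h, then received compounds for 48 h; metabolically active cells were measured by CellTiter-Glo luminescence. Final concentrations spanned up to 46 µM (MIPE, 11-point) or 0.59 nM-46 µM (NPC, 8-point) in primary screens, 11-point in follow-ups.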

[10] = Primary qHTS for small molecule stabilizers of the endoplasmic reticulum resident proteome: Secreted ER Calcium Modulated Protein (SERCaMP) assay (AID 1508630); conditions: SH-SY5Y GLuc-SERCaMP (Gaussia luciferase released on ER calcium loss) secretion, thapsigargin, luminescence; activity change, negative = inhibition: at 38.4 µM (top of the series) unless noted; further: potency means the concentration at half of the fitted maximal effect; on activity change, negative = inhibition: on the % scale 0 is the no-effect control and ±100 the full control effect
Summary of the method: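 GLuc-SERCaMP-expressing SH-SY5Y cells, pretreated 16 h with compound, are challenged with thapsigargin to empty ER calcium stores; after 4 h, coelenterazine is added directly to the medium and luminescence is imaged.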

[11] = qHTS of pediatric cancer cell lines to identify multiple opportunities for drug repurposing: Primary screen for Saos-2 cells (AID 1347097); further: on the % scale 0 is the no-effect control and ±100 the full control effect; nearly all actives have a fitted effect of over 40% in size
Summary of the method: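 Readout: CellTiter-Glo luminescence, 48 h treatment. Controls DMSO (neutral) and bortezomib 2.3 µM final (positive). Potency and efficacy taken from primary-screen concentration-response curves.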
Tags describe the fitted curve by direction and shape.

UniProt P54132, sequence (P54132 whole entry, looked up): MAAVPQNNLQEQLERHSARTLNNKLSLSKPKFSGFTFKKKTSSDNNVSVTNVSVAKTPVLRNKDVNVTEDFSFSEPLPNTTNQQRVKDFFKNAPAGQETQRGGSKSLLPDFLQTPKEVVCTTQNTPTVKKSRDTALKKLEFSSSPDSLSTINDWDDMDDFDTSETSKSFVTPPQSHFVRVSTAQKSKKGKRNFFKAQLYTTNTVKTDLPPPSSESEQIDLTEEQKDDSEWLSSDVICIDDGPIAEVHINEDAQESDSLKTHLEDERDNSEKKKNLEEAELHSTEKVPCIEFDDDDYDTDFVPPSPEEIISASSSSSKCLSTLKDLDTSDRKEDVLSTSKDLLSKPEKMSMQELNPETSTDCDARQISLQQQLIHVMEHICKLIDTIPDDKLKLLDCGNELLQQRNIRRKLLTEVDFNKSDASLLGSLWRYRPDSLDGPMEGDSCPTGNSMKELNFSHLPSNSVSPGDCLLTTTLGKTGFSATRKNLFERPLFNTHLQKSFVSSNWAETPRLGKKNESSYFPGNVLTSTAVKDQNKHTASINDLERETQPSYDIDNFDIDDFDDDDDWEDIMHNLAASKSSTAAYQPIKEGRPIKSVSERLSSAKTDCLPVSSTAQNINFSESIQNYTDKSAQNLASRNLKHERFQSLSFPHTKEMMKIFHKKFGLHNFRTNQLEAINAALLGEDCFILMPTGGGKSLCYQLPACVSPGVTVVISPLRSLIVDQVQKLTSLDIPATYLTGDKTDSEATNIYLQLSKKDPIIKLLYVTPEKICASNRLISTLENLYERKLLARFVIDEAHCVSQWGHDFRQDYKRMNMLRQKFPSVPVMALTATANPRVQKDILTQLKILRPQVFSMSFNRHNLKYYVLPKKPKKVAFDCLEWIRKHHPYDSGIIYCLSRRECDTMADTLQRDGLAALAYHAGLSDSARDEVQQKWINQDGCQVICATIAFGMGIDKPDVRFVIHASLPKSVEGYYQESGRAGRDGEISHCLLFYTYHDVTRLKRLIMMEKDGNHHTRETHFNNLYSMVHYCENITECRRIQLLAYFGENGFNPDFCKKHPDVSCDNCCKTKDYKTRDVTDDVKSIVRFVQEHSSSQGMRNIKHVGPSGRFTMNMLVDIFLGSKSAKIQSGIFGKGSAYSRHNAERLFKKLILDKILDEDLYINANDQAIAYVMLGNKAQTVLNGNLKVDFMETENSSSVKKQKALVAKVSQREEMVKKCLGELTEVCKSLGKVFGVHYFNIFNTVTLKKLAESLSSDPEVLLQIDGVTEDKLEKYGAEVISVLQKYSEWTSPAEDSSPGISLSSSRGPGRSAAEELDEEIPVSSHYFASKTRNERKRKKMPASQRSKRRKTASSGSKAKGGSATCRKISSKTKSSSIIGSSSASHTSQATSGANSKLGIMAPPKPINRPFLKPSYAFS
UniProt O15648, sequence (O15648 whole entry, looked up): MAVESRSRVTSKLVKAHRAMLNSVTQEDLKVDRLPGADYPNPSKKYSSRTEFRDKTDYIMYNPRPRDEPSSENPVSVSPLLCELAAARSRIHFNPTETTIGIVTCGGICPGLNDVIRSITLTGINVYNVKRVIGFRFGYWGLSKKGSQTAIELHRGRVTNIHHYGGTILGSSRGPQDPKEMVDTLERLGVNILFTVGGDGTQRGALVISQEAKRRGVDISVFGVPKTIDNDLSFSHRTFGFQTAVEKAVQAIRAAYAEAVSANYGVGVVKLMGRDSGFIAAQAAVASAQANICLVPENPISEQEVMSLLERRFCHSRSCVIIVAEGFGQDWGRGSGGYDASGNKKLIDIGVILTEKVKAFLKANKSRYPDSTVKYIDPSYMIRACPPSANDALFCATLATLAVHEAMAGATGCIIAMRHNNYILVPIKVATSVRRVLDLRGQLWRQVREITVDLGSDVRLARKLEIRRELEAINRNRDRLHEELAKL
UniProt P09958, sequence (P09958 whole entry, looked up): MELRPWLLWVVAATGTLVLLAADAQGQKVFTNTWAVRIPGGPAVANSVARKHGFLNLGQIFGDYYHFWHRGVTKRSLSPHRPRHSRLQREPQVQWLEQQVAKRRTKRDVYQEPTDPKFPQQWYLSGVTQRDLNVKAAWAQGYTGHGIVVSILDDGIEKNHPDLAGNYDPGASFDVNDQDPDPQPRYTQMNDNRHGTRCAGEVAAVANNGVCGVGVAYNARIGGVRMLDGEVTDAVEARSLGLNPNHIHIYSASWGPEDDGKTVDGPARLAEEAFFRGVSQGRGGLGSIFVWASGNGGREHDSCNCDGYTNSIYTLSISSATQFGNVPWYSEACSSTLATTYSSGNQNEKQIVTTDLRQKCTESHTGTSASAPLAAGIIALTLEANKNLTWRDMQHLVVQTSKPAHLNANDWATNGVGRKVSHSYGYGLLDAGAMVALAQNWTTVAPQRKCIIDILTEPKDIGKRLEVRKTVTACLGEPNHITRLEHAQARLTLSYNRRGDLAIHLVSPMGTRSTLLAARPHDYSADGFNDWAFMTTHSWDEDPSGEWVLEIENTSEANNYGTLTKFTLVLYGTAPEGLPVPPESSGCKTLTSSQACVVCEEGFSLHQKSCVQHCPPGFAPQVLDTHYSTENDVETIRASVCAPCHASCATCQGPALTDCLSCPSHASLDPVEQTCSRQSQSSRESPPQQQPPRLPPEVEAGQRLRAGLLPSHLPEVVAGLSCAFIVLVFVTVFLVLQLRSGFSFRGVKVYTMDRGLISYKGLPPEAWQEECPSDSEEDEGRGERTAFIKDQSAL

In the case of `Cc1cccc(C(=O)NCN2CCN(c3ccccc3C#N)CC2)c1`, the activity change, negative = inhibition [1] is reported as inconclusive: -13.7%, the Potency [2] is reported as inconclusive [rising, single point] and the Potency [3] is reported as inconclusive [inhibitor, full curve, poor fit]. The Potency [4] was inconclusive [activator, full curve, poor fit], the Potency (Furin (Homo sapiens)) was inconclusive [inhibitor, partial curve, poor fit] and the Potency [5] was active: 26.7 µM. For the same molecule, the Potency [6] was inconclusive [inhibitor, partial curve, poor fit] and the Potency [7] was inconclusive [inhibitor, single point].
For `C[Se]CCC(N)C(=O)O` (stereo not drawn), the Potency [8] was active: 54 µM.
For `CCCCC[C@H](CC(=O)NO)C(=O)N[C@H](C(=O)N1CCC[C@H]1CO)C(C)C`, the activity change, negative = inhibition [2] was inconclusive: 1.54%, the Potency [3] was “inactive” and the Potency [4] was “inactive”. The Potency [5] was “inactive”.
For `CCCc1ncc(C(=O)O)s1`, the Potency [9] was “inactive” and the Potency [10] was “inactive”.
With `COc1cc2c(cc1OC)C(=O)CC2` the Potency [8] was inconclusive [cytotoxic, full curve], the Potency [11] was “inactive” and the Potency [9] was “inactive”. The Potency [10] was “inactive”.
With `NCCS` the Potency [1] was “inactive”, the activity change, negative = inhibition [2] was inconclusive: 1.92% and the Potency [3] was inconclusive [inhibitor, full curve, poor fit]. For the same molecule, the Potency [5] was “inactive”.
With `NC(=S)c1ccc[n+]([C@@H]2O[C@@H](COP(=O)([O-])OP(=O)(O)OC[C@H]3O[C@@H](n4cnc5c(N)ncnc54)[C@H](OP(=O)(O)O)[C@@H]3O)C(O)C2O)c1` (stereo partly drawn) the Potency [10] was inconclusive [inhibitor, partial curve, poor fit].
In the case of `COc1ccc(C(=O)NCc2ccc(OCCN(C)C)cc2)cc1OC`, the Potency [10] is reported as “inactive”.
In the case of `O=C(Oc1ccccc1C(=O)O)c1ccccc1O`, the Potency [9] is reported as “inactive” and the Potency [10] is reported as “inactive”.
For `O=C(O)c1ccc(OCCN2CCCCC2)cc1`, the Potency [10] was inconclusive [inhibitor, partial curve, poor fit].
